From a collection of fitness landscapes (doi:10.1016/j.celrep.2020.107928)
In all, about 81,000 sequences were measured (“one-hybrid fitness for binding NBS DNA”: median about -0.1, highest 2% from about 0.36 on). The list shows a part of the results.

B1: Caulobacter ParB omega fusion; a variant is named by its letters at X, in order, B8GW30 (parent)
chain: MESVVVGEPGMSEGRRGLGRGLSALLGEVDAAPAQAPGEQLGGSREAPIEILQRNPDQPRRTFREEDLEDLSNSIREKGVLQPILVRPSPDTAGEYQIVAGERAWRAAQRAGLKTVPIMVRELDDLAVLEIGIIENVQRADLNVLEEALSYKVLMEKFERTQENIAQTIGKSXSHVANXMRLLXLPDEVQSYLVSGELTAXHARAIAAAADPVALAKQIIEGGLSVRETEALARKAPNLSAGKSKGGRPPRVKDTDTQALESDLSSVLGLDVSIDHRGSTGTLTITYATLEQLDDLCNRLTRGI

Variants of: B1
Experiment: one-hybrid fitness for binding NBS DNA (the Noc-binding site; scaled: cognate 1, non-cognate 0); higher = stronger binding
Settings: with NBS DNA site
Outline: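 On M9-minus-histidine containing 0.1 mM IPTG and 5 mM 3-AT, E. coli USO cells with a HIS3 reporter, site 19 bp from the promoter, grew 48 hours at 37°C to select Caulobacter ParB libraries randomised at four specificity codons. Plasmids from before and after were Illumina-sequenced, with three replicate libraries pooled and variants under 10 reads left out. Fitness is the log change in variant-to-wild-type read ratio, rescaled against cognate and non-cognate.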

one-hybrid fitness for binding NBS DNA, 0.383:
RVAT

one-hybrid fitness for binding NBS DNA, 0.27:
QCAW

one-hybrid fitness for binding NBS DNA, 0.247:
QTVH

one-hybrid fitness for binding NBS DNA, 0.348:
QRYV

one-hybrid fitness for binding NBS DNA, 0.206:
KTGR
QKHY

one-hybrid fitness for binding NBS DNA, ≤ 0.2:
LGHD
QKEP
ITKS
LCYT
SGRY
SFRM
GKVY
ARVF
TQSL
NEPR
LSPA
CGSR
TWYT
HQSM
IYLN
LYRR
QDTE
YTRM
IVSV
HKES
CRCE
FVTE
HELC
GQII
GMST
FGAV
ANLV
LQMW
VKHL
PVYR
VLCL
RVRK
ACPQ
WQQG
RWGK
STMS
PHNV
AWKC
VTNN
YGQC
KCRI
QPRV
AIVA
KHFG
TNLL
YAVM
IARM
CSST
NCIT
PSAL
GFAS
PFWL
PRAD
LMHR
QPMC
LPMN
ASHI
RKGL
HPWR
RLDY
DHQC
QHGV
VHDS
ADWV
KHRV
QVEN
GIRR
PRFT
PPTH
VNMD
CRAR
PKPT
WPNA
RWTD
PCVR
DIQR
IKWR
IVYR
PAQT
DNYR
TPAI
FSVD
EPRK
MTMI
AGHI
ATGD
SRVH
QSDQ
LMYN
ISYT
WPAA
GSTP
SQLC
PRMD
YDAV
KWQW
CKMS
RCCK
VVSW
DWPS
SDTP
VEKG
HWNR
VQMR
PRGC
YSRS
STER
EYVV
AKRE
TVVW
TNTW
LPYF
RSTK
PDMS
PCTK
STIC
TPDY
KMVC
CTWL
SDNF
LMTS
HEPW
LPDN
YRLC
SEHW
LRQF
VGKY
FEPP
SGQS
LRAF
KYIT
CYVR
IRRV
AKCS
DSIG
PQNR
WLTG
GETD
ILYG
PNIT
CAFA
LGWR
HEWC
FYVT
SSCR
KDNC
RKMP
HRIT
IYCF
PYAQ
FSAC
RTQW
MNAN
VTWR
RTVP
NLGW
VCTR
SARW
FKQW
LCKV
LWKS
VSRV
MWEG
WGFS
ELAN
SLQQ
RCFV
YSIS
NGNP
QGHA
LDGC
TYWF
TRTA
AKNL
MMNL
HAVE
GQRR
HVAM
SISK
IHFT
SQRL
INHL
AWCS
RHGL
FNTY
RPMR
YISA
YSDT
TFRR
LDDK
PPLA
ETIT
PSPP
LQWD
CPSM
RNHW
PCVY
THYR
QSYD
SGDT
AYIC
CQTG
DTDT
VPNR
QFPC
LMNH
GVVC
RFNH
TSPI
QLHC
PLVC
IRGA
LLAM
HPVS
ETNY
HVRR
EGGG
KRPY
SWSG
CDLR
NEGG
IARH
RVAG
CGER
RNNG
PSNC
AFAN
KAAK
RRMD
KSEY
CAVM
RGNK
AYGW
CTCV
IQLY
RAFE
WDAG
FGYG
EPKS
GPNT
RIFK
GKES
VIRC
RMDL
SSPN
QGHD
HGMG
PAAG
PDRC
HASK
HVTM
RRVW
HYYG
PVVA
CCTK
ASPE
RFLE
SFAF
TSRT
QCAF
YPVS
QVYC
REYE
HPSC
SMVR
LSRC
SHPI
LCLN
KYNG
HTTT
WDLC
AQMM
THPW
LNEV
TCRS
RHQV
VSCT
WFGG
VNRT
GQWL
RPVI
RGAM
NLCC
VKTC
PSDD
NSNF
NCLM
LVRH
YTRW
MNYT
QWVN
SQQW
YAPS
RLLG
YGNF

one-hybrid fitness for binding NBS DNA, 0.248:
QSQA

one-hybrid fitness for binding NBS DNA, 0.21:
RWVT

one-hybrid fitness for binding NBS DNA, 0.255:
RRCV

one-hybrid fitness for binding NBS DNA, 0.286:
QVRY

one-hybrid fitness for binding NBS DNA, 0.769:
RRYT
